Source: ChEMBL document CHEMBL3392926, “Antiprotozoal Activity Profiling of Approved Drugs: A Starting Point toward Drug Repositioning”

Assays:
Test in all cases: microbe, parasite or virus in culture
Assay type in all cases: functional, organism-based
Trypanosoma cruzi = conditions: Tulahuen C4 (LacZ), 96 h
[1] = tested on: Trypanosoma brucei rhodesiense; conditions: STIB 900, 72 h
Plasmodium falciparum = conditions: K1, 72 h
Leishmania donovani [2] = conditions: MHOM/ET/67/L82, 72 h
Leishmania donovani [3] = conditions: MHOM/ET/67/L82, 96 h

## CNCC[C@H](Oc1ccc(C(F)(F)F)cc1)c1ccccc1
Trypanosoma cruzi
  IC50: 19.1 µM
[1]
  IC50: 2.01 µM
Plasmodium falciparum
  IC50: 1.21 µM

## Clc1ccc2c(c1)C(N1CCNCC1)=Nc1ccccc1O2 [AMOXAPINE]
Trypanosoma cruzi
  IC50: 17.9 µM
[1]
  IC50: 1.87 µM
Plasmodium falciparum
  IC50: 1.14 µM

## CN(C)CCCN1c2ccccc2CCc2ccc(Cl)cc21 [CLOMIPRAMINE]
Trypanosoma cruzi
  IC50: 20.3 µM
Leishmania donovani [2]
  IC50: 75.7 µM
[1]
  IC50: 2.06 µM
Plasmodium falciparum
  IC50: 1.3 µM

## Clc1ccccc1C(c1ccccc1)(c1ccccc1)n1ccnc1 [CLOTRIMAZOLE]
Leishmania donovani [2]
  IC50: 2.23 µM
[1]
  IC50: 23.7 µM
Plasmodium falciparum
  IC50: 0.11 µM

## Clc1ccc(COC(Cn2ccnc2)c2ccc(Cl)cc2Cl)cc1 (stereo not drawn) [ECONAZOLE]
Leishmania donovani [2]
  IC50: 6.15 µM
[1]
  IC50: 41.7 µM
Leishmania donovani [3]
  IC50: 14 µM
Plasmodium falciparum
  IC50: 0.32 µM

## CCN(CC)CCOc1ccc(/C(=C(/Cl)c2ccccc2)c2ccccc2)cc1 [ENCLOMIPHENE]
Trypanosoma cruzi
  IC50: 11.5 µM
Leishmania donovani [2]
  IC50: 21.6 µM
[1]
  IC50: 6.21 µM
Plasmodium falciparum
  IC50: 1.37 µM

## OCCN1CCN(CCCN2c3ccccc3Sc3ccc(C(F)(F)F)cc32)CC1 [FLUPHENAZINE]
Trypanosoma cruzi
  IC50: 13 µM
Leishmania donovani [2]
  IC50: 46.7 µM
[1]
  IC50: 2.03 µM

## Clc1ccc(COC(Cn2ccnc2)c2ccc(Cl)cc2Cl)c(Cl)c1 (stereo not drawn) [MICONAZOLE]
Leishmania donovani [2]
  IC50: 4.39 µM
[1]
  IC50: 36.6 µM
Leishmania donovani [3]
  IC50: 10.8 µM
Plasmodium falciparum
  IC50: 0.49 µM
